From paper PMC12820563
The other results are listed elsewhere or left out. The list includes weakly bound sequences.

These sequences were tested against T1, MBP-FoxP3dN (UniProt Q99JB6) (assay: PD-seq (MBP pull-down with sequencing)). Conditions: 20 mM Tris-HCl pH 7.5, 100 mM NaCl, 1.5 mM MgCl2, 0.4 uM protein, 0.1 uM dsDNA library, 30 min, room temperature, amylose pull-down; high values mean tight binding; double strand, one strand shown.
T1 sequence: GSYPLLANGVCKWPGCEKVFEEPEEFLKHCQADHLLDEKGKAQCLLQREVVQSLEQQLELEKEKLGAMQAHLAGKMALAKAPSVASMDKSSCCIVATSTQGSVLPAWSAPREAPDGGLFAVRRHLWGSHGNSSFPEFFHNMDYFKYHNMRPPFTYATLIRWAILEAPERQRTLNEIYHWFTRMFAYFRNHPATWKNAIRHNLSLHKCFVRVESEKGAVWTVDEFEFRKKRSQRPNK
With “GATGATTGTTCTCCCAGCTGATGAATTGGGCGCCTCGAGTAAACAAATTTTCCTAATCTTTCTGTTCAAGCGCCATCTAC” the binding signal (RPM ratio (pull-down/input)) was 1.16.
Work on “GATGATTGTTCTCCCAGCTGATGAATTTCCCCGCTCGAGTAAACAAATTTTCCTAATCTTTCTGTTCAAGCGCCATCTAC” yielded a binding signal (RPM ratio (pull-down/input)) of 0.17.
For “GATGATTGTTCTCCCAGCTGATGAATTGCTACGGTCGAGTAAACAAATTTTCCTAATCTTTCTGTTCAAGCGCCATCTAC”, the binding signal (RPM ratio (pull-down/input)) was 0.498.
Sequence “GATGATTGTTCTCCCAGCTGATGAATTGCCGCCGTCGAGTAAACAAATTTTCCTAATCTTTCTGTTCAAGCGCCATCTAC” has a binding signal (RPM ratio (pull-down/input)) of 0.854.
Sequence “GATGATTGTTCTCCCAGCTGATGAATTGTTATCGTCGAGTAAACAAATTTTCCTAATCTTTCTGTTCAAGCGCCATCTAC” has a binding signal (RPM ratio (pull-down/input)) of 3.32.
“GATGATTGTTCTCCCAGCTGATGAATTCTGTTGATCGAGTAAACAAATTTTCCTAATCTTTCTGTTCAAGCGCCATCTAC” gave a binding signal (RPM ratio (pull-down/input)) of 6.26.
With “GATGATTGTTCTCCCAGCTGATGAATTGTCGAAGTCGAGTAAACAAATTTTCCTAATCTTTCTGTTCAAGCGCCATCTAC” the binding signal (RPM ratio (pull-down/input)) was 0.267.
“GATGATTGTTCTCCCAGCTGATGAATTGCTTGCATCGAGTAAACAAATTTTCCTAATCTTTCTGTTCAAGCGCCATCTAC” was tested, and the binding signal (RPM ratio (pull-down/input)) was 1.89.
In the case of “GATGATTGTTCTCCCAGCTGATGAATTCCGCCTTTCGAGTAAACAAATTTTCCTAATCTTTCTGTTCAAGCGCCATCTAC”, the binding signal (RPM ratio (pull-down/input)) is reported as 5.55.
For “GATGATTGTTCTCCCAGCTGATGAATTCTATACTTCGAGTAAACAAATTTTCCTAATCTTTCTGTTCAAGCGCCATCTAC”, the binding signal (RPM ratio (pull-down/input)) was 0.52.
In the case of “GATGATTGTTCTCCCAGCTGATGAATTGAGTAAATCGAGTAAACAAATTTTCCTAATCTTTCTGTTCAAGCGCCATCTAC”, the binding signal (RPM ratio (pull-down/input)) is reported as 0.321.
“GATGATTGTTCTCCCAGCTGATGAATTCAGGGGGTCGAGTAAACAAATTTTCCTAATCTTTCTGTTCAAGCGCCATCTAC” showed a binding signal (RPM ratio (pull-down/input)) of 0.504.
In the case of “GATGATTGTTCTCCCAGCTGATGAATTCTTTCTTTCGAGTAAACAAATTTTCCTAATCTTTCTGTTCAAGCGCCATCTAC”, the binding signal (RPM ratio (pull-down/input)) is reported as 0.21.
With “GATGATTGTTCTCCCAGCTGATGAATTACTCGCGTCGAGTAAACAAATTTTCCTAATCTTTCTGTTCAAGCGCCATCTAC” the binding signal (RPM ratio (pull-down/input)) was 0.538.
“GATGATTGTTCTCCCAGCTGATGAATTACACAGGTCGAGTAAACAAATTTTCCTAATCTTTCTGTTCAAGCGCCATCTAC” showed a binding signal (RPM ratio (pull-down/input)) of 0.412.
Work on “GATGATTGTTCTCCCAGCTGATGAATTTACAATCTCGAGTAAACAAATTTTCCTAATCTTTCTGTTCAAGCGCCATCTAC” yielded a binding signal (RPM ratio (pull-down/input)) of 0.506.
Sequence “GATGATTGTTCTCCCAGCTGATGAATTCGACCTATCGAGTAAACAAATTTTCCTAATCTTTCTGTTCAAGCGCCATCTAC” has a binding signal (RPM ratio (pull-down/input)) of 0.381.
In the case of “GATGATTGTTCTCCCAGCTGATGAATTATGTAAGTCGAGTAAACAAATTTTCCTAATCTTTCTGTTCAAGCGCCATCTAC”, the binding signal (RPM ratio (pull-down/input)) is reported as 1.19.
With “GATGATTGTTCTCCCAGCTGATGAATTTACGTGTTCGAGTAAACAAATTTTCCTAATCTTTCTGTTCAAGCGCCATCTAC” the binding signal (RPM ratio (pull-down/input)) was 0.861.
“GATGATTGTTCTCCCAGCTGATGAATTTCAGAAATCGAGTAAACAAATTTTCCTAATCTTTCTGTTCAAGCGCCATCTAC” showed a binding signal (RPM ratio (pull-down/input)) of 0.229.
In the case of “GATGATTGTTCTCCCAGCTGATGAATTGCATTTTTCGAGTAAACAAATTTTCCTAATCTTTCTGTTCAAGCGCCATCTAC”, the binding signal (RPM ratio (pull-down/input)) is reported as 3.02.
In the case of “GATGATTGTTCTCCCAGCTGATGAATTTTGTGATTCGAGTAAACAAATTTTCCTAATCTTTCTGTTCAAGCGCCATCTAC”, the binding signal (RPM ratio (pull-down/input)) is reported as 5.26.
“GATGATTGTTCTCCCAGCTGATGAATTGCCGCTTTCGAGTAAACAAATTTTCCTAATCTTTCTGTTCAAGCGCCATCTAC” gave a binding signal (RPM ratio (pull-down/input)) of 1.66.
“GATGATTGTTCTCCCAGCTGATGAATTAGGACTATCGAGTAAACAAATTTTCCTAATCTTTCTGTTCAAGCGCCATCTAC” showed a binding signal (RPM ratio (pull-down/input)) of 0.577.
“GATGATTGTTCTCCCAGCTGATGAATTCTGCGTCTCGAGTAAACAAATTTTCCTAATCTTTCTGTTCAAGCGCCATCTAC” was tested, and the binding signal (RPM ratio (pull-down/input)) was 4.55.
With “GATGATTGTTCTCCCAGCTGATGAATTAGTGACCTCGAGTAAACAAATTTTCCTAATCTTTCTGTTCAAGCGCCATCTAC” the binding signal (RPM ratio (pull-down/input)) was 0.612.
With “GATGATTGTTCTCCCAGCTGATGAATTCGTCCCCTCGAGTAAACAAATTTTCCTAATCTTTCTGTTCAAGCGCCATCTAC” the binding signal (RPM ratio (pull-down/input)) was 0.616.
With “GATGATTGTTCTCCCAGCTGATGAATTGTACGCCTCGAGTAAACAAATTTTCCTAATCTTTCTGTTCAAGCGCCATCTAC” the binding signal (RPM ratio (pull-down/input)) was 0.75.
Sequence “GATGATTGTTCTCCCAGCTGATGAATTCAGCCTGTCGAGTAAACAAATTTTCCTAATCTTTCTGTTCAAGCGCCATCTAC” has a binding signal (RPM ratio (pull-down/input)) of 3.98.
Work on “GATGATTGTTCTCCCAGCTGATGAATTACAACCATCGAGTAAACAAATTTTCCTAATCTTTCTGTTCAAGCGCCATCTAC” yielded a binding signal (RPM ratio (pull-down/input)) of 0.693.
“GATGATTGTTCTCCCAGCTGATGAATTTATAAACTCGAGTAAACAAATTTTCCTAATCTTTCTGTTCAAGCGCCATCTAC” showed a binding signal (RPM ratio (pull-down/input)) of 0.622.
“GATGATTGTTCTCCCAGCTGATGAATTTACGCATTCGAGTAAACAAATTTTCCTAATCTTTCTGTTCAAGCGCCATCTAC” was tested, and the binding signal (RPM ratio (pull-down/input)) was 6.38.
